# Laboratory results reported in paper PMC4336329 (PLoS ONE, 2015).
# About 2,200 (0.71%) of roughly 310,000 compounds showed an effect of 50% or more. The effect is printed as a negative number. The list shows a part of the results.
# Biological target: human ether-à-go-go-related gene (hERG) potassium channel (human, UniProt Q12809)
# Assay: primary screen, population patch clamp on CHO cells stably expressing hERG
# Chain of human ether-à-go-go-related gene (hERG) potassium channel (Q12809 whole entry, looked up): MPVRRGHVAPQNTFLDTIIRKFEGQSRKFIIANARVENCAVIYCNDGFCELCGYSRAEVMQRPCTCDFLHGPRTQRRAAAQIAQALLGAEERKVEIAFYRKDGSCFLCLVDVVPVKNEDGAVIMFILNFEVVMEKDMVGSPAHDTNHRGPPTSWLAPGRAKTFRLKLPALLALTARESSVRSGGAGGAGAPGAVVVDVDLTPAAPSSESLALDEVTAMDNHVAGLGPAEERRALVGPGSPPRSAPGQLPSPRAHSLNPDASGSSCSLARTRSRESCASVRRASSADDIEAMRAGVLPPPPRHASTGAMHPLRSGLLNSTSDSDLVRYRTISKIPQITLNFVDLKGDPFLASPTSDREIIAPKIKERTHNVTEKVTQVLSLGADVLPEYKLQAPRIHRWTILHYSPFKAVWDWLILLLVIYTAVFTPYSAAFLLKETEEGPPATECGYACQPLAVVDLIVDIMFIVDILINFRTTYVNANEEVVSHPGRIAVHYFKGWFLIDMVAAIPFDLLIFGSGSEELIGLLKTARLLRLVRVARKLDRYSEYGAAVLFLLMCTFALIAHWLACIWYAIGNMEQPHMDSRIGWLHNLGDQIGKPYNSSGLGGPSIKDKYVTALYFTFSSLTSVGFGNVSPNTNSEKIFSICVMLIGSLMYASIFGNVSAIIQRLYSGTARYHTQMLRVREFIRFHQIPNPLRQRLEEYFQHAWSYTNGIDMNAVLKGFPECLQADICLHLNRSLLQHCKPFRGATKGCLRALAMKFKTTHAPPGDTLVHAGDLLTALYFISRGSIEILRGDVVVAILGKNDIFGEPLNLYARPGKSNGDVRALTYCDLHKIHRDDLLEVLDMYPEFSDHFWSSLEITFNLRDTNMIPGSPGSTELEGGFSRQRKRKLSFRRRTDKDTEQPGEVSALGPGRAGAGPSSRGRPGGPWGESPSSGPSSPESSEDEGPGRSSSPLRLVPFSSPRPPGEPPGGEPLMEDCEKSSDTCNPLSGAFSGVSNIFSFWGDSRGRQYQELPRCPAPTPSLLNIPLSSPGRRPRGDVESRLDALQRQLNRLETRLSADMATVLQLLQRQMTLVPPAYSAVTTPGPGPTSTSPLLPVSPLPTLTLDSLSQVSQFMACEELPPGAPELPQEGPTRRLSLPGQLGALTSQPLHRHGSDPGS
row,SMILES,"hERG current change (%, negative = inhibition) at 1uM"
1,CC(=O)NC1(c2ccc(F)cc2)CCN(C(=O)Nc2ccc(F)cc2F)CC1,3.08%
2,CN(CCCC(=O)Nc1nccs1)S(=O)(=O)c1ccc(Cl)cc1,10.9%
3,Cc1ccc2nc(Nc3ccc(Cl)cc3)c3nncn3c2c1,13.4%
4,CN1CCC(NC(=O)Cc2c(F)cccc2Cl)CC1,8.76%
5,Cc1ccc(/C=C/C(=O)O)cc1S(=O)(=O)N(C)CCO,1.66%
6,COC(=O)Nc1nc(-c2ccccc2)c(C(=O)c2ccccc2)s1,1.89%
7,CCN(CC)C(=S)NC(=O)c1ccc(OC)c(Br)c1,13.5%
8,CN(CC(=O)Nc1cccc(F)c1)C(=O)c1cc(S(=O)(=O)N2CCN(c3ccccc3)CC2)ccc1Cl,-0.495%
9,Nc1cc(=O)[nH]c(SCC(=O)Nc2ccccc2-c2ccccc2)n1,13.3%
10,CC(C)(C)c1ccc(C(=O)NNC(=O)c2cccc(Br)c2)cc1,11.5%
11,COc1ccc(C2CC(c3ccccc3C)n3nc(N)nc3N2)cc1 (stereo not drawn),2.16%
12,C/C(=N\NC(=O)c1cc(-c2ccncc2)nc2ccccc12)c1ccc(OC(F)F)cc1,-4.44%
13,Cc1cc(-c2nc(C)c(C(=O)NNS(=O)(=O)c3cccc(C(F)(F)F)c3)s2)no1,7.14%
14,O=C(/C=C/c1ccco1)Nc1cccc2cccnc12,7.94%
15,O=C(Nc1ccc(NC(=S)NC(=O)c2ccccc2F)cc1)c1cccs1,5.55%
16,CCCCCC(=O)Nc1ccc(-c2csc(N)n2)cc1,7.1%
17,Cc1c(Cl)ccc2sc(NC(=O)CN3C(=O)c4ccccc4C3=O)nc12,12.8%
18,CCC(Sc1nc2cc(OC)c(OC)cc2c(=O)n1Cc1ccc(OC)cc1)C(=O)NCCOC (stereo not drawn),-6.75%
19,Cc1cc(C)nc(SCC(=O)c2ccc(O)c(O)c2)n1,16%
20,COc1cccc(NC(=O)C(=O)c2cn(CC(=O)N3CCCC3)c3ccccc23)c1,12.6%
21,O=C1/C(=C/c2cc([N+](=O)[O-])ccc2Cl)N2CCC1CC2,-3.92%
22,CCCCNC(=O)c1onc(CSc2ccncc2)c1C(=O)NCCCC,14.1%
23,CCN(C(=O)CN(C)Cc1cccc(Cl)c1Cl)c1c(N)n(Cc2ccccc2)c(=O)[nH]c1=O,6.57%
24,CN1CCN(c2ccc(S(=O)(=O)N3CCCCC3)cc2NC(=O)c2cccc([N+](=O)[O-])c2)CC1,-7.23%
25,CC1(C)Cc2c(c(=S)nc(-c3ccccc3)n2CCN2CCOCC2)CO1,6.74%
26,Cc1c(NC(=O)C(C)OC(=O)CC2Sc3ccccc3NC2=O)c(=O)n(-c2ccccc2)n1C (stereo not drawn),14.4%
27,CC(=O)c1cccc(N(C(=O)Cn2nnc3ccccc32)C(C(=O)NC2CCCCC2)c2cn(C)nc2C)c1 (stereo not drawn),-0.0434%

row,SMILES,"hERG current change (%, negative = inhibition) at 1uM"
1,N#CCc1ccc(NC(=O)c2cc(S(=O)(=O)N3CCOCC3)ccc2Cl)cc1,9.35%
2,CCNc1c(NC(=O)COc2ccc(Cl)cc2)c(=O)oc2ccccc12,3.75%
3,COc1ccc(N2C(=O)C3CCCN3C2c2cccc(C)c2)cc1 (stereo not drawn),8.84%
4,CC(C)CCNC(=O)NC(=O)CSc1nnc(COc2ccccc2Cl)o1,-4.56%
5,CCCNC(=O)CCc1c(C)nc2nc(-c3cc(OC)cc(OC)c3)nn2c1C,6.87%
6,C=CC1CN(C(=O)OCC(Cl)(Cl)Cl)C2CC3c4ccc(OC)cc4NC3C3CC1C2CO3 (stereo not drawn),4.62%
7,CCOc1cc(-c2noc(-c3cccnc3)n2)ccc1OC,5.67%
8,CC(C)n1cc(CN2CCC(C(=O)Nc3cccc(-c4cscn4)c3)CC2)cn1,0.715%
9,CSc1ncccc1C(=O)N1CCN(C(=O)c2ccccc2)CC1,12.4%
10,CCCN1C(=O)N(C)C(N(O)C(=O)NC)C1(C)C (stereo not drawn),8.06%
11,CCOCCCn1c(=N)c(C(N)=S)cc2c(=O)n3cccc(C)c3nc21,-85.5%
12,CCOc1ccc(C(=O)CCN2CCCCC2)cc1,4.71%
13,O=C(NCc1ccco1)c1ccc(CS(=O)Cc2ccc(Cl)cc2)o1 (stereo not drawn),-0.6%
14,CN(C)CCOc1ccc(Cl)cc1C(C)(C)C.O=C(O)C(=O)O,3.21%
15,O=C(CCSc1nnc(-c2ccncc2)o1)Nc1cccc(Cl)c1,1.61%
16,Cc1ccc(Nc2nc(N)c([N+](=O)[O-])c(NCCO)n2)cc1C,4.68%
17,Cc1cccn2cc(CNC(=O)C3CCCCC3)nc12,9.27%
18,COc1ccc(/C(O)=C2\C(=O)C(=O)N(c3cc(C)on3)C2c2ccccc2OC)cc1C (stereo not drawn),4.94%
19,O=C(N=Nc1c(O)[nH]c(=O)[nH]c1=O)C1COc2ccccc2O1 (stereo not drawn),6.77%
20,CC(NC(=O)/C=C/c1ccco1)c1nc2ccccc2n1Cc1cccc(Cl)c1 (stereo not drawn),-4.89%
21,O=C(c1ccccn1)C1CCCN(Cc2cn[nH]c2-c2cc3ccccc3o2)C1 (stereo not drawn),-23.5%
22,COc1ccc(CCNc2ccc(C(CC(N)=O)NC(=O)c3ccccc3)cc2[N+](=O)[O-])cc1 (stereo not drawn),6.7%
23,O=C(NC(=O)c1ccccc1Cl)C(=O)Nc1ccc(Cl)cc1,10.5%
24,CCCn1nc(C(=O)OCC(=O)Nc2cccc(S(N)(=O)=O)c2)c2ccccc2c1=O,10.7%
25,COc1ccc(/C=C/C(=O)NCc2cn(C)nc2C)cc1COc1ccc(Cl)cc1Br,7.05%
26,CC(=O)N(CC1CCCO1)c1nnc(-c2ccccn2)s1 (stereo not drawn),-3.15%
27,CCOP(=O)(OCC)C(O)c1ccc(OC)cc1OC (stereo not drawn),11.1%
